The other results are listed elsewhere or left out.
Legend:
Assay in all cases: glycan array binding signal (z-score within array); higher = stronger binding
Conditions in all cases: glycan notation: IUPAC condensed, linker removed
Fuc(a1-2)Gal = target: Fuc(a1-2)Gal
Outline: (§1)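 Glycan array data came from 3228 arrays in the Consortium for Functional Glycomics database, and only arrays with an available protein sequence were kept. Glycan names were put into IUPAC-condensed notation, and columns mapping to the same glycan were averaged. The binding signal is a within-array Z-score, averaged across arrays of one protein sequence run at different concentrations or buffers and across linkers. A negative Z-score can be read as non-binding.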

Fuc(a1-2)Gal(b1-3)GalNAc = target: Fuc(a1-2)Gal(b1-3)GalNAc
Outline: as §1

[1] = target: Fuc(a1-2)Gal(b1-3)GalNAc(b1-3)Gal
Outline: as §1

[2] = target: Fuc(a1-2)Gal(b1-3)GalNAc(b1-3)Gal(a1-4)Gal(b1-4)Glc
Outline: as §1

[3] = target: Fuc(a1-2)Gal(b1-3)GalNAc(b1-4)[Neu5Ac(a2-3)]Gal(b1-4)Glc
Outline: as §1

Fuc(a1-2)Gal(b1-3)GlcNAc = target: Fuc(a1-2)Gal(b1-3)GlcNAc
Outline: as §1

[4] = target: Fuc(a1-2)Gal(b1-3)GlcNAc(b1-2)Man(a1-3)[Fuc(a1-2)Gal(b1-3)GlcNAc(b1-2)Man(a1-6)]Man(b1-4)GlcNAc(b1-4)GlcNAc
Outline: as §1

[5] = target: Fuc(a1-2)Gal(b1-3)GlcNAc(b1-3)Gal(b1-4)Glc
Outline: as §1

[6] = target: Fuc(a1-2)Gal(b1-3)GlcNAc(b1-3)[Gal(b1-4)[Fuc(a1-3)]GlcNAc(b1-6)]Gal(b1-4)Glc
Outline: as §1

[7] = target: Fuc(a1-2)Gal(b1-3)[Fuc(a1-4)]GlcNAc
Outline: as §1

[8] = target: Fuc(a1-2)Gal(b1-3)[Fuc(a1-4)]GlcNAc(b1-2)Man(a1-3)[Fuc(a1-2)Gal(b1-3)[Fuc(a1-4)]GlcNAc(b1-2)Man(a1-6)]Man(b1-4)GlcNAc(b1-4)GlcNAc
Outline: as §1

Fuc(a1-2)Gal(b1-4)Glc = target: Fuc(a1-2)Gal(b1-4)Glc
Outline: as §1

Fuc(a1-2)Gal(b1-4)Glc6S = target: Fuc(a1-2)Gal(b1-4)Glc6S
Outline: as §1

Fuc(a1-2)Gal(b1-4)GlcNAc = target: Fuc(a1-2)Gal(b1-4)GlcNAc
Outline: as §1

[9] = target: Fuc(a1-2)Gal(b1-4)GlcNAc(b1-2)Man(a1-3)[Fuc(a1-2)Gal(b1-4)GlcNAc(b1-2)Man(a1-6)]Man(b1-4)GlcNAc(b1-4)GlcNAc
Outline: as §1

[10] = target: Fuc(a1-2)Gal(b1-4)GlcNAc(b1-3)Gal(b1-4)GlcNAc
Outline: as §1

[11] = target: Fuc(a1-2)Gal(b1-4)GlcNAc(b1-3)Gal(b1-4)GlcNAc(b1-3)Gal(b1-4)GlcNAc
Outline: as §1

[12] = target: Fuc(a1-2)Gal(b1-4)GlcNAc6S
Outline: as §1

[13] = target: Fuc(a1-2)Gal(b1-4)[Fuc(a1-3)]GlcNAc
Outline: as §1

[14] = target: Fuc(a1-2)Gal(b1-4)[Fuc(a1-3)]GlcNAc(b1-2)Man(a1-3)[Fuc(a1-2)Gal(b1-4)[Fuc(a1-3)]GlcNAc(b1-2)Man(a1-6)]Man(b1-4)GlcNAc(b1-4)GlcNAc
Outline: as §1

[15] = target: Fuc(a1-2)Gal(b1-4)[Fuc(a1-3)]GlcNAc(b1-3)Gal(b1-4)[Fuc(a1-3)]GlcNAc
Outline: as §1

[16] = target: Fuc(a1-2)Gal(b1-4)[Fuc(a1-3)]GlcNAc(b1-3)Gal(b1-4)[Fuc(a1-3)]GlcNAc(b1-3)Gal(b1-4)[Fuc(a1-3)]GlcNAc
Outline: as §1

Fuc(a1-2)Gal6S(b1-4)Glc = target: Fuc(a1-2)Gal6S(b1-4)Glc
Outline: as §1

[17] = target: Fuc(a1-2)Gal6S(b1-4)Glc6S
Outline: as §1

[18] = target: Fuc(a1-2)Gal6S(b1-4)GlcNAc
Outline: as §1

Fuc(a1-2)[Gal(a1-3)]Gal = target: Fuc(a1-2)[Gal(a1-3)]Gal
Outline: as §1

[19] = target: Fuc(a1-2)[Gal(a1-3)]Gal(b1-3)GlcNAc
Outline: as §1

[20] = target: Fuc(a1-2)[Gal(a1-3)]Gal(b1-3)GlcNAc(b1-2)Man(a1-3)[Fuc(a1-2)[Gal(a1-3)]Gal(b1-3)GlcNAc(b1-2)Man(a1-6)]Man(b1-4)GlcNAc(b1-4)GlcNAc
Outline: as §1

[21] = target: Fuc(a1-2)[Gal(a1-3)]Gal(b1-4)Glc
Outline: as §1

[22] = target: Fuc(a1-2)[Gal(a1-3)]Gal(b1-4)GlcNAc
Outline: as §1

B1: Ficolin B (Rattus norvegicus), P57756 (protein)
chain: MVLGSAALFVLSLCVTELTLHAADTCPEVKVLDLEGSNKLTILQGCPGLPGALGPKGEAGAKGDRGESGLPGHPGKAGPTGPKGDRGEKGVRGEKGDTGPSQSCATGPRTCKELLTRGYFLTGWYTIYLPDCRPLTVLCDMDTDGGGWTVFQRRIDGTVDFFRDWTSYKQGFGSQLGEFWLGNDNIHALTTQGTNELRVDLADFDGNHDFAKYSSFQIQGEAEKYKLILGNFLGGGAGDSLTSQNNMLFSTKDQDNDQGSSNCAVRYHGAWWYSDCHTSNLNGLYLRGLHKSYANGVNWKSWKGYNYSYKVSEMKVRLI
glycan array binding signal (z-score) (Fuc(a1-2)Gal): -0.229 | glycan array binding signal (z-score) (Fuc(a1-2)Gal(b1-3)GalNAc): -0.176 | glycan array binding signal (z-score) [1]: -0.113 | glycan array binding signal (z-score) [2]: -0.242 | glycan array binding signal (z-score) [3]: -0.165 | glycan array binding signal (z-score) (Fuc(a1-2)Gal(b1-3)GlcNAc): -0.197 | glycan array binding signal (z-score) [4]: 0.365 | glycan array binding signal (z-score) [5]: -0.194 | glycan array binding signal (z-score) [6]: -0.217 | glycan array binding signal (z-score) [7]: -0.182 | glycan array binding signal (z-score) [8]: -0.027 | glycan array binding signal (z-score) (Fuc(a1-2)Gal(b1-4)Glc): -0.194 | glycan array binding signal (z-score) (Fuc(a1-2)Gal(b1-4)Glc6S): -0.184 | glycan array binding signal (z-score) (Fuc(a1-2)Gal(b1-4)GlcNAc): -0.192 | glycan array binding signal (z-score) [9]: 0.039 | glycan array binding signal (z-score) [10]: 0.068 | glycan array binding signal (z-score) [11]: -0.183 | glycan array binding signal (z-score) [12]: -0.218 | glycan array binding signal (z-score) [13]: -0.09 | glycan array binding signal (z-score) [14]: -0.055 | glycan array binding signal (z-score) [15]: -0.205 | glycan array binding signal (z-score) [16]: -0.164 | glycan array binding signal (z-score) (Fuc(a1-2)Gal6S(b1-4)Glc): -0.136 | glycan array binding signal (z-score) [17]: -0.166 | glycan array binding signal (z-score) [18]: -0.13 | glycan array binding signal (z-score) (Fuc(a1-2)[Gal(a1-3)]Gal): -0.089 | glycan array binding signal (z-score) [19]: -0.2 | glycan array binding signal (z-score) [20]: -0.137 | glycan array binding signal (z-score) [21]: -0.191 | glycan array binding signal (z-score) [22]: -0.124

From the supplement of paper PMC8728848
